Consider two compounds from US20090306098A1 (Cyclacel Limited, priority 2005, published 2009).

The experiment concerns A549 cells. The note with it: A549, 72 h; IC50 butyrate, 0.25-1.5×IC50 seliciclib, alone or together; FIG. 1.

As for `CCCC(=O)[O-].[Na+]` [Butyrate, sodium butyrate], the “sub-G1 cells (<2n DNA, dead or undergoing apoptosis)” value is reported as “small increase”. For `CC[C@H](CO)Nc1nc(NCc2ccccc2)c2ncn(C(C)C)c2n1` [seliciclib, 2-(1-R-hydroxymethylpropylamino)-6-benzylamino-9-isopropylpurine], the “sub-G1 cells (<2n DNA, dead or undergoing apoptosis)” value was “dose-dependent increase”.
